# Measured values: the supplement of paper PMC8728848
# This is one part of the list.
# B1: mCC1-Hexahis-Precomplexed (Mus musculus), P31809 (protein)
# chain: MELASAHLHKGQVPWGGLLLTASLLASWSPATTAEVTIEAVPPQVAEDNNVLLLVHNLPLALGAFAWYKGNTTAIDKEIARFVPNSNMNFTGQAYSGREIIYSNGSLLFQMITMKDMGVYTLDMTDENYRRTQATVRFHVHPILLKPNITSNNSNPVEGDDSVSLTCDSYTDPDNINYLWSRNGESLSEGDRLKLSEGNRTLTLLNVTRNDTGPYVCETRNPVSVNRSDPFSLNIIYGPDTPIISPSDIYLHPGSNLNLSCHAASNPPAQYFWLINEKPHASSQELFIPNITTNNSGTYTCFVNNSVTGLSRTTVKNITVLEPVTQPFLQVTNTTVKELDSVTLTCLSNDIGANIQWLFNSQSLQLTERMTLSQNNSILRIDPIKREDAGEYQCEISNPVSVRRSNSIKLDIIFDPTQGGLSDGHHHHHH
# How the values were obtained:
# Experiment in all cases: glycan array binding signal (z-score within array); higher = stronger binding
# Conditions in all cases: glycan notation: IUPAC condensed, linker removed
# [1] = target: Gal(b1-4)GlcNAc(b1-3)Gal(b1-4)GlcNAc(b1-6)[Gal(b1-3)]GalNAc
# Procedure, shortened: (§1)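 Arrays were curated from the Consortium for Functional Glycomics database, 3228 in total, and kept only where the protein sequence was available. Binding is expressed as a within-array Z-score. This score was averaged across arrays of the same protein sequence at different concentrations or buffers and across linkers, and negative values can be read as non-binding.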
# [2] = target: Gal(b1-4)GlcNAc(b1-3)Gal(b1-4)[Fuc(a1-3)]GlcNAc(b1-3)Gal(b1-4)[Fuc(a1-3)]GlcNAc
# Procedure, shortened: as §1
# [3] = target: Gal(b1-4)GlcNAc(b1-3)GalNAc
# Procedure, shortened: as §1
# [4] = target: Gal(b1-4)GlcNAc(b1-3)[Fuc(a1-3)GlcNAc(b1-6)]Gal(b1-4)Glc
# Procedure, shortened: as §1
# [5] = target: Gal(b1-4)GlcNAc(b1-3)[Gal(b1-4)GlcNAc(b1-6)]Gal(b1-4)GlcNAc
# Procedure, shortened: as §1
# [6] = target: Gal(b1-4)GlcNAc(b1-3)[GlcNAc(b1-6)]Gal(b1-4)GlcNAc
# Procedure, shortened: as §1
# [7] = target: Gal(b1-4)GlcNAc(b1-6)Gal(b1-4)GlcNAc
# Procedure, shortened: as §1
# [8] = target: Gal(b1-4)GlcNAc(b1-6)GalNAc
# Procedure, shortened: as §1
# [9] = target: Gal(b1-4)GlcNAc(b1-6)[Gal(b1-3)]GalNAc
# Procedure, shortened: as §1
# [10] = target: Gal(b1-4)GlcNAc(b1-6)[Gal(b1-4)GlcNAc(b1-3)]GalNAc
# Procedure, shortened: as §1
# Gal(b1-4)GlcNAc6P = target: Gal(b1-4)GlcNAc6P
# Procedure, shortened: as §1
# Gal(b1-6)Gal = target: Gal(b1-6)Gal
# Procedure, shortened: as §1
# Gal3S(b1-3)GalNAc = target: Gal3S(b1-3)GalNAc
# Procedure, shortened: as §1
# Gal3S(b1-3)GlcNAc = target: Gal3S(b1-3)GlcNAc
# Procedure, shortened: as §1
# [11] = target: Gal3S(b1-3)[Fuc(a1-4)]GlcNAc
# Procedure, shortened: as §1
# Gal3S(b1-4)Glc = target: Gal3S(b1-4)Glc
# Procedure, shortened: as §1
# Gal3S(b1-4)Glc6S = target: Gal3S(b1-4)Glc6S
# Procedure, shortened: as §1
# Gal3S(b1-4)GlcNAc = target: Gal3S(b1-4)GlcNAc
# Procedure, shortened: as §1
# [12] = target: Gal3S(b1-4)[Fuc(a1-3)]Glc6S
# Procedure, shortened: as §1
# [13] = target: Gal3S(b1-4)[Fuc(a1-3)]GlcNAc
# Procedure, shortened: as §1
# [14] = target: Gal3S(b1-4)[Fuc(a1-3)]GlcNAc6S
# Procedure, shortened: as §1
# Gal3S4S(b1-4)GlcNAc = target: Gal3S4S(b1-4)GlcNAc
# Procedure, shortened: as §1
# Gal3S6S(b1-4)GlcNAc = target: Gal3S6S(b1-4)GlcNAc
# Procedure, shortened: as §1
# Gal3S6S(b1-4)GlcNAc6S = target: Gal3S6S(b1-4)GlcNAc6S
# Procedure, shortened: as §1
# Gal4S(b1-4)GlcNAc = target: Gal4S(b1-4)GlcNAc
# Procedure, shortened: as §1
# Gal4S6S(b1-4)GlcNAc = target: Gal4S6S(b1-4)GlcNAc
# Procedure, shortened: as §1
# Gal6P(b1-4)GlcNAc = target: Gal6P(b1-4)GlcNAc
# Procedure, shortened: as §1
# Gal6S(b1-3)GlcNAc = target: Gal6S(b1-3)GlcNAc
# Procedure, shortened: as §1
# Gal6S(b1-3)GlcNAc6S = target: Gal6S(b1-3)GlcNAc6S
# Procedure, shortened: as §1
# Gal6S(b1-4)Glc = target: Gal6S(b1-4)Glc
# Procedure, shortened: as §1
# Gal6S(b1-4)Glc6S = target: Gal6S(b1-4)Glc6S
# Procedure, shortened: as §1
# Gal6S(b1-4)GlcNAc = target: Gal6S(b1-4)GlcNAc
# Procedure, shortened: as §1
# Gal6S(b1-4)GlcNAc6S = target: Gal6S(b1-4)GlcNAc6S
# Procedure, shortened: as §1
# GalNAc(a1-3)Gal = target: GalNAc(a1-3)Gal
# Procedure, shortened: as §1
# GalNAc(a1-3)GalNAc = target: GalNAc(a1-3)GalNAc
# Procedure, shortened: as §1
# [15] = target: GalNAc(a1-3)GalNAc(a1-3)Gal(a1-4)Gal(b1-4)GlcNAc
# Procedure, shortened: as §1
# [16] = target: GalNAc(a1-3)GalNAc(b1-3)Gal(a1-4)Gal(b1-4)Glc
# Procedure, shortened: as §1
binder,measurement,setting,value
B1,glycan array binding signal (z-score),[1],5.01
same,glycan array binding signal (z-score),[2],-0.031
same,glycan array binding signal (z-score),[3],-0.081
same,glycan array binding signal (z-score),[4],0.712
same,glycan array binding signal (z-score),[5],-0.185
same,glycan array binding signal (z-score),[6],-0.196
same,glycan array binding signal (z-score),[7],-0.19
same,glycan array binding signal (z-score),[8],-0.217
same,glycan array binding signal (z-score),[9],-0.217
same,glycan array binding signal (z-score),[10],-0.153
same,glycan array binding signal (z-score),Gal(b1-4)GlcNAc6P,-0.289
same,glycan array binding signal (z-score),Gal(b1-6)Gal,-0.239
same,glycan array binding signal (z-score),Gal3S(b1-3)GalNAc,-0.308
same,glycan array binding signal (z-score),Gal3S(b1-3)GlcNAc,-0.236
same,glycan array binding signal (z-score),[11],-0.249
same,glycan array binding signal (z-score),Gal3S(b1-4)Glc,-0.25
same,glycan array binding signal (z-score),Gal3S(b1-4)Glc6S,-0.194
same,glycan array binding signal (z-score),Gal3S(b1-4)GlcNAc,-0.255
same,glycan array binding signal (z-score),[12],-0.049
same,glycan array binding signal (z-score),[13],-0.277
same,glycan array binding signal (z-score),[14],-0.225
same,glycan array binding signal (z-score),Gal3S4S(b1-4)GlcNAc,-0.229
same,glycan array binding signal (z-score),Gal3S6S(b1-4)GlcNAc,-0.321
same,glycan array binding signal (z-score),Gal3S6S(b1-4)GlcNAc6S,-0.276
same,glycan array binding signal (z-score),Gal4S(b1-4)GlcNAc,-0.25
same,glycan array binding signal (z-score),Gal4S6S(b1-4)GlcNAc,-0.237
same,glycan array binding signal (z-score),Gal6P(b1-4)GlcNAc,-0.271
same,glycan array binding signal (z-score),Gal6S(b1-3)GlcNAc,-0.181
same,glycan array binding signal (z-score),Gal6S(b1-3)GlcNAc6S,-0.249
same,glycan array binding signal (z-score),Gal6S(b1-4)Glc,-0.191
same,glycan array binding signal (z-score),Gal6S(b1-4)Glc6S,-0.18
same,glycan array binding signal (z-score),Gal6S(b1-4)GlcNAc,-0.076
same,glycan array binding signal (z-score),Gal6S(b1-4)GlcNAc6S,-0.246
same,glycan array binding signal (z-score),GalNAc(a1-3)Gal,-0.254
same,glycan array binding signal (z-score),GalNAc(a1-3)GalNAc,-0.085
same,glycan array binding signal (z-score),[15],-0.267
same,glycan array binding signal (z-score),[16],-0.182
